Reference: PubChem BioAssay AID686979 (National Center for Advancing Translational Sciences (NCATS), 2013)
About 50,000 (12%) of roughly 420,000 compounds were called active. Inconclusive means that the source gave no clear call. Such entries were picked first, then a sample of the others. Calls come from the whole dose curve; as a rule, active = well fitted inhibition curve with a large enough effect; inconclusive = small, poorly fitted or top-dose-only effect; inactive = flat fitted curve, though single readings scatter. No potency is given beside an inconclusive call; the fits are too rough.

Experiment: qHTS for Inhibitors of human tyrosyl-DNA phosphodiesterase 1 (TDP1): qHTS in cells in presence of CPT; note: nearly all actives have a fitted effect of over 55% in size
Conditions: chicken DT40 Tdp1-/-;hTDP1 cells + 20 nM CPT, ATP luminescence, 48 h; activity change, negative = growth inhibition: at 46.2 µM (top of the series)
Procedure, shortened: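 Cell growth measured by CellTiter-Glo luminescence after a minimum 48 h, 37 C compound exposure with 20 nM CPT in Tdp1-knockout DT40 cells stably expressing hTDP1, seeded 400/well; qHTS titration format.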
% is set by controls: 0 for no effect and ±100 for the full control effect; potency is the fitted concentration of half-maximal effect; tags give direction and shape of the fitted curve.

Row | Compound | Potency | activity change, negative = growth inhibition
1 | Cc1cc(Br)ccc1NC(=O)CSc1nnc(CN2CCOCC2)n1C | inactive | 
2 | COc1cc(C(=O)Nc2scc(-c3ccccc3)c2C(=O)O)cc(OC)c1OC | inconclusive [inhibitor, single point] | 
3 | O=C(c1ccoc1)N1CCCC(N2CCN(c3cccc(Cl)c3)CC2)C1 (configuration not stated) | inconclusive [inhibitor, partial curve] | 
4 | CC(=O)Nc1ncc(Cc2ccc(Cl)cc2Cl)s1 | inconclusive [inhibitor, partial curve] | 
5 | CC(C)(C)CC(=O)Nc1nnc(SCC(=O)NC2CCCC2)s1 |  | inconclusive: -32% [inhibitor]
6 | OCCOCCn1c(C(CO)Nc2nc(-c3ccccc3Br)cs2)nc2ccccc21 (configuration not stated) | inconclusive [inhibitor, partial curve] | 
7 | O=C(Nc1ccc(/C=C/c2nc3ccccc3o2)cc1)c1c(F)cccc1F | inconclusive [inhibitor, single point] | 
8 | O=C1N(Cc2cccnc2)C[C@@H]2C[C@@H](c3cccc(C(F)(F)F)c3)N3CCC[C@@]123 | inconclusive [inhibitor, single point] | 
9 | COC(=O)c1ccc(OC(=O)c2ccccn2)cc1 | inactive | 
10 | COc1ccc(NC(=S)NC(NC(=O)c2cccc(Cl)c2)C(Cl)(Cl)Cl)c([N+](=O)[O-])c1 (configuration not stated) | inconclusive [inhibitor, single point] | 
11 | CCCn1c(N)c(C(=O)CN(C)CC(=O)Nc2ccc(F)cc2)c(=O)[nH]c1=O | inconclusive [inhibitor, single point] | 
12 | C/C(=N\NC(=O)CNc1cccc2ccccc12)c1ccc(Br)s1 | active: 11.6 µM | 
13 | O=C(O)COc1ccc(/C=N/O)cc1Br | inactive | 
14 | CCOC(=O)Cc1csc(NC(=O)Nc2ccc(F)cc2)n1 | inconclusive [inhibitor, single point] | 
15 | CC(=O)c1cccc(OC(=O)C2=CC=CN3CCS(=O)(=O)N=C23)c1 | inactive | 
16 | CCOc1ccc(OCC)c(NC(=O)CSc2nc3ccccc3c(=O)n2C)c1 | active: 16.4 µM | 
17 | COc1ccc(C(=O)N2CCCC(c3cc(C(=O)NCc4ccccc4)no3)C2)cc1 (configuration not stated) | inconclusive [inhibitor, single point] | 
18 | Cc1cccc(N2CCN(C(=O)c3cc4c(=O)[nH]c5ccc(C)cc5c4s3)CC2C)c1 (configuration not stated) | inconclusive [inhibitor, single point] | 
19 | CCOC(=O)N1CCN(S(=O)(=O)c2ccc(C(=O)N(CCCN(C)C)c3nc4ccc(CC)cc4s3)cc2)CC1 | inconclusive [inhibitor, single point] | 
20 | O=C(C1CCCCC1)N1C[C@@H](O)[C@H](n2cc(-c3ccc(F)cc3)nn2)C[C@@H]1c1ccc(Cl)cc1 | inconclusive [inhibitor, single point] | 
21 | CC(C)C(=O)N1CCN(c2ccccc2NC(=O)c2cccc(Cl)c2)CC1 | inconclusive [inhibitor, single point] | 
22 | Cc1ccccc1NC(=O)COC(=O)/C=C/c1cccc(C(F)(F)F)c1 | inactive | 
23 | COCc1ccc(CN2CCC(n3nccc3NC(=O)c3ccc4c(c3)OCO4)CC2)o1 |  | inconclusive: -30.4% [inhibitor]
24 | Cc1cc(C)c(Cn2c(=O)n(CCCC(=O)NCc3ccco3)c(=O)c3ccccc32)c(C)c1 | inconclusive [inhibitor, partial curve] | 

Row | Compound | Potency | activity change, negative = growth inhibition
25 | O=C(CSc1ccsc1[N+](=O)[O-])NCc1ccco1 | inactive | 
26 | COc1ccccc1NC(=O)c1cnc(SC)nc1 | inactive | 
27 | O=C(O)CN1C(=O)NC2(CCCc3ccccc32)C1=O (configuration not stated) | inactive | 
28 | CCCOc1ccc(C(=O)NNC(=S)NC(C)=O)cc1 | active: 2.59 µM | 
29 | CCCCn1c(N)c(C(=S)NC(=O)CC(C)C)c(=O)n(C)c1=O | inconclusive [inhibitor, single point] | 
30 | Cc1ccc(S(=O)(=O)NC(=O)c2cccc(N(C)C)c2)cc1 | inactive | 
31 | COc1ccc(NC(=O)CN(C)C(=O)c2cnc(Cl)c(Cl)c2)cc1 | inactive | 
32 | Cc1cc(S(=O)(=O)N2CCCC2)ccc1OCC(=O)NCc1ccccc1 | inconclusive [inhibitor, single point] | 
33 | COc1ccc(C(=O)NC(=S)Nc2ccc3[nH]c(=O)[nH]c3c2)cc1 | inactive | 
34 | Cc1ccc(S(=O)(=O)c2nnn3c2nc(NC2CCN(Cc4ccccc4)CC2)c2ccccc23)cc1C | active: 11.6 µM | 
35 | CC1(C(=O)NS(=O)(=O)C2CC2)CCCN(C(=O)C2(c3ccc(Cl)cc3)CCCC2)C1 (configuration not stated) | inconclusive [inhibitor, partial curve] | 
36 | Cc1nc2ccc(NC(=O)Cc3ccccc3F)cc2s1 | inactive | 
37 | COCCn1nnnc1C(c1ccc(OC)c(OC)c1)N1CCN(C(=O)c2ccco2)CC1 (configuration not stated) | inactive | 
38 | CC(=O)/C(=N\Nc1ccc(C)cc1)Sc1nncn1C | inactive | 
39 | CCCCn1c(NCc2ccccn2)nc2ccccc21 | inconclusive [inhibitor, single point] | 
40 | COc1cc(OC)c(OC)cc1CNc1cc(C)ccc1OC | inconclusive [inhibitor, single point] | 
41 | Nc1c(Cl)cc(-c2cn(CCC(=O)O)c(-c3ccncc3)n2)cc1Cl | inactive | 
42 | Clc1ccc(/C=C\c2nccc3c2[nH]c2ccccc23)cc1 | inconclusive [inhibitor, single point] | 
43 | CCOC(=O)C1CCN(S(=O)(=O)c2c(C)n[nH]c2C)CC1 | inactive | 
44 | Cc1cc(CCCCCCCCc2cc(C)cc(=O)o2)oc(=O)c1 | inconclusive [inhibitor, partial curve] | 
45 | CC1=C(C(=O)Nc2ccccc2C)C(c2cccs2)n2nc(SCc3cc(C)ccc3C)nc2N1 (configuration not stated) | inconclusive [inhibitor, full curve] | 
46 | O=c1c(N2CCc3ccccc3C2)csc2ccc(F)cc12 | inconclusive [inhibitor, single point] | 
47 | CCOc1ccccc1NC(=O)/C(C#N)=C/c1c(C)nn(-c2ccc(F)cc2)c1Cl | active: 13 µM | 
